Assay results taken from PubChem BioAssay AID1768 (National Center for Advancing Translational Sciences (NCATS), 2009).
The whole screen tested about 270,000 compounds, of which about 620 (0.23%) were called active. This list was built around the results that the source calls inconclusive (neither active nor inactive); the mix of calls is not that of the screen. The call rests on the fitted dose curve; in most records, active means well fitted inhibition curve with a large enough effect in the polarisation, with a control signal flat (not every such curve was filed as active); inconclusive means small, poorly fitted or top-dose-only effect, or effect the other way, or a change in a side signal; inactive means no such curve, though single readings can be large or run the other way; the % refers to the polarisation. Potencies of inconclusive entries are doubtful fits and often do not repeat. “Side channel” marks fits to a control or component signal instead of the main read-out.

target: Menin (Homo sapiens) (UniProt O00255); test: qHTS Assay for Inhibitors Targeting the Menin-MLL Interaction in MLL Related Leukemias: Competition With Texas Red Labeled MLL-derived Mutant Peptide; details: fluorescence polarization; FP activity change, negative = inhibition: at 61.6 µM (top of the series); on FP activity change, negative = inhibition: % of control where 0% means no effect
Sequence of UniProt O00255 (O00255 whole entry, looked up): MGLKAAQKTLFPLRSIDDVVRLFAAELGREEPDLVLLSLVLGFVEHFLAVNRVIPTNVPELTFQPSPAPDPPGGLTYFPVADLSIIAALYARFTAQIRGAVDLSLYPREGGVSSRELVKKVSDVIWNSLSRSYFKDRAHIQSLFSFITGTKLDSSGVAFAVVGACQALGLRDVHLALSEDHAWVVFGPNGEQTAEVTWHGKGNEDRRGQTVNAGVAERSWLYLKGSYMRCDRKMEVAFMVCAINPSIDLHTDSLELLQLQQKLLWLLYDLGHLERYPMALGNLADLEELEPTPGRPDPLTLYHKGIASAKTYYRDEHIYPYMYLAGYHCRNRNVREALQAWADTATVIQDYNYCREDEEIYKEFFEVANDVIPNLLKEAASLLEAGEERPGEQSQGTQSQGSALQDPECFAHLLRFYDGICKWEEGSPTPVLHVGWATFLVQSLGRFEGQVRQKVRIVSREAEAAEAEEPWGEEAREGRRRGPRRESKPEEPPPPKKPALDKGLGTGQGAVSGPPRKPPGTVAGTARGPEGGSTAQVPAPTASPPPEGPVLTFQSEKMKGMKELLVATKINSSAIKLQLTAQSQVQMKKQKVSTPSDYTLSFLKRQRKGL
Potency means the concentration at half of the fitted maximal effect; tags describe the fitted curve by direction and shape or compound fluorescence and quenching.

SMILES | Potency | FP activity change, negative = inhibition
Cc1cc(C)n2nc(SCCOc3ccc(F)cc3)nc2n1 | inconclusive: 22.4 µM [inhibitor, partial curve] | 
OCCn1c(CSc2nnc(-c3ccco3)n2-c2ccccc2)nc2ccc(Cl)cc21 | inconclusive: 20 µM [quencher, side channel, single point] | 
CCCc1nc(SCC(=O)N2CCc3ccccc3C2)c2ccccc2n1 | inconclusive: 4.47 µM [inhibitor, full curve] | 
Cc1noc(C)c1CNCc1ccccc1 | inconclusive: 11.2 µM [inhibitor, single point] | 
CCc1ccc(/C=C2\SC(=S)N(CCCC(=O)Nc3ccccn3)C2=O)cc1 | inconclusive: 10 µM [inhibitor, partial curve] | 
CCC(CC)c1nnc(NC(=O)C2CC(=O)N(CCc3ccc(F)cc3)C2)s1 (configuration not stated) | inconclusive: 0.708 µM [inhibitor, full curve, poor fit] | 
CC(=O)Nc1nc(SCc2cccc3ccccc23)n[nH]1 | inconclusive: 25.1 µM [inhibitor, single point] | 
O=C(CSc1nnnn1-c1ccccc1)Nc1ncc(Cc2ccccc2Cl)s1 |  | inactive: -0.134%
Cn1c(=O)c2cc(S(=O)(=O)NCCC(=O)N3CC=C(c4ccccc4)CC3)ccc2n(C)c1=O |  | inactive: 7.11%
COc1cc(Cl)c(C)cc1NC(=O)CSc1cc(Cl)ccc1Cl | inconclusive: 14.1 µM [quencher, side channel, partial curve] | 
COc1ccc(-c2nn(-c3ccccc3)cc2/C=N/NS(=O)(=O)c2ccccc2)cc1 | inconclusive: 3.98 µM [quencher, side channel, partial curve] | 
C[C@@H](O)CCC[C@H](O)/C=C/[C@@H]1[C@@H](C/C=C\CCCC(=O)O)[C@@H](O)C[C@H]1O |  | inactive: 9.44%
O=C(COC(=O)c1c2c(nc3ccccc13)/C(=C\c1cccs1)CCC2)Nc1ccccc1 | inconclusive: 3.16 µM [quencher, side channel, partial curve] | 
CC(=O)Nc1ccc(S(=O)(=O)Nc2cccc(-c3cn4c(n3)SCC4)c2)cc1 | inconclusive: 39.8 µM [quencher, side channel, single point] | 
CC(=O)Nc1cccc(NC(=S)Nc2ccc(F)c(Cl)c2)c1 | inconclusive: 25.1 µM [quencher, single point] | 
CCn1c(SCC(=O)Nc2cccc(O)c2)nc2c1c(=O)n(C)c(=O)n2C | inconclusive: 31.6 µM [fluorescent, side channel, single point] | 
Cc1ccoc1C(=O)N1CCCC(CCC(=O)N2CCN(c3ccccn3)CC2)C1 (configuration not stated) | inconclusive: 17.8 µM [fluorescent, side channel, partial curve] | 
CCC(C)(C)NC(=O)C(c1ccccn1)N(C(=O)c1csnn1)c1ccc(C)c(C)c1 (configuration not stated) | inconclusive: 15.8 µM [fluorescent, side channel, partial curve] | 
O=C(Oc1cccnc1)c1ccc([N+](=O)[O-])cc1Cl | inconclusive: 11.2 µM [quencher, side channel, partial curve] | 

SMILES | Potency | FP activity change, negative = inhibition
CCCn1c2ccccc2c2cnn(CC(=O)NCCN(CC)CC)c(=O)c21 | inconclusive: 20 µM [inhibitor, partial curve] | 
Cc1ccc(Cl)cc1NC(=O)CCn1cccc1 | inconclusive: 14.1 µM [inhibitor, single point] | 
CCCCc1nc(NCCN)c(C#N)c2c1CSC(C)(C)C2 | inconclusive: 28.2 µM [fluorescent, side channel, single point] | 
COc1ccc(/C=c2\s/c(=C/C(=O)c3ccc(C)cc3)[nH]c2=O)cc1OC | inconclusive: 31.6 µM [quencher, side channel, partial curve] | 
O=c1[nH]c2cc(Cl)ccc2n(CCNc2ncc(C(F)(F)F)cc2Cl)c1=O | inconclusive: 0.631 µM [inhibitor, full curve, poor fit] | 
CN(CC(=O)Nc1ccccc1Cl)C(=O)CSc1nnc(-c2ccco2)o1 | inconclusive: 31.6 µM [fluorescent, side channel, single point] | 
Cn1c(NCc2c(O)ccc3ccccc23)nc2ccccc21 | inconclusive: 12.6 µM [quencher, side channel, partial curve] | 
O=c1ccc(-c2ccc(S(=O)(=O)NCc3cccc(Br)c3)s2)n[nH]1 | inconclusive: 35.5 µM [fluorescent, side channel, single point] | 
Cc1[nH]c(=O)c(C(=O)/C=C/c2ccccc2F)c2c1CCCC2 | inconclusive: 39.8 µM [inhibitor, single point] | 
Cc1ccc(-c2cc(C(=O)NCc3ccc4c(c3)OCO4)[nH]n2)c(O)c1C | inconclusive: 20 µM [quencher, side channel, single point] | 
CC1(C)CC(NNCCC#N)=CC(=[N+]2CCCC2)C1 | inconclusive: 22.4 µM [fluorescent, side channel, partial curve] | 
Nc1nc(Nc2cccc(F)c2)nc2ccccc12 | inconclusive: 17.8 µM [quencher, side channel, partial curve] | 
COc1cccc(NC(=S)NCCC(c2ccccc2)c2ccccc2)c1 | inconclusive: 8.91 µM [quencher, side channel, full curve, poor fit] | 
COc1ccc(Br)cc1CN(C)CC(=O)NCc1ccc(F)cc1 | inconclusive: 35.5 µM [inhibitor, single point] | 
CC(C)(C)c1cc2cccnc2n1Cc1ccccc1 | inconclusive: 3.98 µM [fluorescent, side channel, single point] | 
O=[N+]([O-])c1ccccc1/C=N/n1c(COc2ccccc2)n[nH]c1=S | inconclusive: 22.4 µM [quencher, side channel, partial curve] | 
O=[N+]([O-])c1ccc(C[n+]2ccc(Cc3ccccc3)cc2)cc1 | inconclusive: 22.4 µM [inhibitor, single point] | 
O=C(NCCN1CCOCC1)c1cnn2c(-c3ccccc3)cc(-c3ccccc3)nc12 | inconclusive: 22.4 µM [inhibitor, single point] | 
